Results: US12643954B2, “Anti-CD36 antibodies and their use to treat cancer” (ONA Therapeutics, S.L., priority 2020, dated 2026)

Key:
mouse CD36 = molecular target: T1, mouse CD36 (Mus musculus, UniProt Q08857); assay: ELISA binding to plate-coated mouse CD36; settings: recombinant mouse CD36 coated plates
T1 construct: purchased Sino Biological 50422-M08H
Description: (§1) To perform ELISA assays, 96-well ELISA plates were coated over night with human CD36 (Sino Biological, reference 10752-H08H) or mouse CD36 (Sino Biological, reference 50422-M08H) recombinant proteins at a concentration of 0.25 mg/ml. After two washes with PBS, plates were blocked with 4% skimmed milk in PBS for 1 hour at 37° C. Blocking solution was discarded and plates were washed five times with 200 μl/well PBS-Tween20 (0.5%). Primary antibodies were either omitted (control blocking solution treatment) or mixed in blocking solution at several dilutions ranging from 0.01 nM to 0.5 μM. The primary antibody solutions were added to the wells and incubated over night at 4° C. After 5 washes with 200 ul/well of PBS-Tween20 (0.5%), plates were incubated for 1 hour at room temperature with a goat anti-mouse HRP-conjugated antibody (Abeam, reference ab97235) diluted 1:2000 in blocking solution. Plates were then washed 5 times with 200 μl/well of PBS-Tween20 (0.5%), incubated with 100 μl/well TMB and detected after 10 minutes, 30 minutes, or 60 minutes with a spectrophotometer at a wave length of 630 nm.

[1] = molecular target: T2, cells overexpressing human CD36 (Homo sapiens, UniProt P16671); assay: FACS binding to cells overexpressing human CD36; settings: serial dilution up to 100 nM
T2 construct: expressed in transfected cells
Description: For FACS analysis, cells were trypsinized, collected in a 15 mL tube and diluted in washing buffer (2% FBS in PBS). Cells were then centrifuged at 1500 rpm for 5 min at 4° C., supernatant was discarded, and cells were resuspended in fresh washing buffer. Anti-CD36 antibodies were either omitted (control wash buffer treatment) or serially diluted in washing buffer (dilution range up to 100 nM), and then added to the cells. Incubation was performed on ice for 1 hour. Cells were then centrifuged at 1500 rpm for 5 min at 4° C., supernatant was discarded, and cells were resuspended in fresh washing buffer. Finally, cells were incubated with a […] (BV421 Rat Anti-Mouse IgA, Becton Dickinson, reference 743293) diluted 1:100 in washing buffer, washed and analysed by FACS.

CD36 = CD36 (Homo sapiens, UniProt P16671); assay: ELISA binding to plate-coated human CD36; parameters: purchased Sino Biological 10752-H08H; settings: recombinant human CD36 coated plates
Description: as §1

T1 sequence (Q08857 30-439 limits assumed): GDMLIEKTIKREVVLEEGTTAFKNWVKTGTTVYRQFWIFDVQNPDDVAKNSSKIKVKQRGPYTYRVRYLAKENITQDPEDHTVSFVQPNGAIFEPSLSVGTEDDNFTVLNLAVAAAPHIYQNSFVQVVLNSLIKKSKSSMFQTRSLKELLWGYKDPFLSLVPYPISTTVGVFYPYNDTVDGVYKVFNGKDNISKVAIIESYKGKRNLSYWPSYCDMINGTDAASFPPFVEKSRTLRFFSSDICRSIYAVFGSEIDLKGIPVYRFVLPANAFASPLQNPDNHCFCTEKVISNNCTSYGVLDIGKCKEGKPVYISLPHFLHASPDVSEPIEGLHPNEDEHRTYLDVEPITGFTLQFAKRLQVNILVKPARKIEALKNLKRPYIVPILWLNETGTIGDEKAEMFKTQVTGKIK
T2 sequence (P16671 whole entry): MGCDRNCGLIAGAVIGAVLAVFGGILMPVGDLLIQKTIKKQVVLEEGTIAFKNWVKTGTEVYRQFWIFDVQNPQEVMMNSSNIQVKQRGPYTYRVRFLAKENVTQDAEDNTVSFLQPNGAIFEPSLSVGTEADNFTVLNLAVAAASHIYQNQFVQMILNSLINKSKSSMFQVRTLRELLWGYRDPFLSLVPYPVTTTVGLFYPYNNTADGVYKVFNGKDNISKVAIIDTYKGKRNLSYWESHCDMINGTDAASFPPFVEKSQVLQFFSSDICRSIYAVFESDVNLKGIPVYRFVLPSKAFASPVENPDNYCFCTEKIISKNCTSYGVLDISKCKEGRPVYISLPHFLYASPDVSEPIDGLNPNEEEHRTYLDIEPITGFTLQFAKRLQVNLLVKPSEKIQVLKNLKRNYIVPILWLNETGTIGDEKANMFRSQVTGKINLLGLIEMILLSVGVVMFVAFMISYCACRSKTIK

B1: chimeric ONA-0-v2 IgG1 LALA: chimeric ONA-0-v2 IgG1 LALA antibody; heavy chain SEQ ID NO: 21, light chain SEQ ID NO: 25 (antibody)
heavy: QVQLKQSGADLVRPGASVKLSCKASGYTFTDYYINWVKQRPGQGLEWIARIYPGSGNTYYNEKFKGKATLTAEKSSSTAYMQLSSLTSEDSAVYFCARGIGGGFGMDYWGQGTSVTVSS[skipping human IgG1 constant region with changes]
light: NIVMTQSPKSMSMSVGERVTLTCKASENVVTYVSWYQQKPEQSPKLLIYGASNRYTGVPDRFTGSGSATDFTLTISSVQAEDLADYHCGQGYSYPYTFGGGTKLEIKRTVAAPSVFIFPPSDEQLKSGTASVVCLLNNFYPREAKVQWKVDNALQSGNSQESVTEQDSKDSTYSLSSTLTLSKADYEKHKVYACEVTHQGLSSPVTKSFNRGEC
modifications: 1G04 heavy chain; ONA-0-v2 ch IgG1 LALA light chain
binding to mouse CD36 in ELISA (mouse CD36): but not | binding to cells overexpressing human CD36 (FACS) [1]: not observed to interact | binding to human CD36 in ELISA (CD36): but not
